# Reference: PMC5766253
# Chains of the proteins cited; added tags and fusions are not shown. Residues count along the entry.
# UniProt Q69467, residues 26-393: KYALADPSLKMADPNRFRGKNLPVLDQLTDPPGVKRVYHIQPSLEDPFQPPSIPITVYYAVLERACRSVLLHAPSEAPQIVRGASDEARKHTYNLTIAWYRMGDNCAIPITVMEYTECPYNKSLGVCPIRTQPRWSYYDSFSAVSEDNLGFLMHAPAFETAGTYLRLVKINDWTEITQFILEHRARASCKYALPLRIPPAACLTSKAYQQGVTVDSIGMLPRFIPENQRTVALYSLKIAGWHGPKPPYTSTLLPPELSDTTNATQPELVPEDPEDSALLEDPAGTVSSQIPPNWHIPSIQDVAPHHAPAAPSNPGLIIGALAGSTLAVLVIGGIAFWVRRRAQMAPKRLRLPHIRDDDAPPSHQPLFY
# UniProt P06477, residues 19-838: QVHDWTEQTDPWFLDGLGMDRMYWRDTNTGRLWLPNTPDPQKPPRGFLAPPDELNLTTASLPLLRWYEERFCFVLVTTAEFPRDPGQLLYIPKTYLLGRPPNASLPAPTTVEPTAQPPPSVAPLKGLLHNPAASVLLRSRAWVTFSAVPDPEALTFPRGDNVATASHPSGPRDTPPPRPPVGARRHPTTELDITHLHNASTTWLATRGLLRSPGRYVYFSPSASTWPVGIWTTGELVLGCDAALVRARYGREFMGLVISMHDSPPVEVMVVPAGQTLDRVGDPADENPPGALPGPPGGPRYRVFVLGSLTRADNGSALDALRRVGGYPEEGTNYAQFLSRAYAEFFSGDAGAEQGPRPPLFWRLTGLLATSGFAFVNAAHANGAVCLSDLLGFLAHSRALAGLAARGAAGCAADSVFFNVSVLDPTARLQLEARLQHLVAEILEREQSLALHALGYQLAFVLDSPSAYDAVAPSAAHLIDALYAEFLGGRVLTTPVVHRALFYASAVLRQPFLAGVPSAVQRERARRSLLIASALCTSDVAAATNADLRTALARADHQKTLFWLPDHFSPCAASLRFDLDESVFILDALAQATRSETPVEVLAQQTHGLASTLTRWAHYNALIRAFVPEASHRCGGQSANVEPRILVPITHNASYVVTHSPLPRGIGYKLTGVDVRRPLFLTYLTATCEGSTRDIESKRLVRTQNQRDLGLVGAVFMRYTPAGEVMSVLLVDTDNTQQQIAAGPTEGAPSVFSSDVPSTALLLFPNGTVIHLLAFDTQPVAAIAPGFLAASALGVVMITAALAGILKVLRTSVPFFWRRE
# UniProt P10185, residues 20-224: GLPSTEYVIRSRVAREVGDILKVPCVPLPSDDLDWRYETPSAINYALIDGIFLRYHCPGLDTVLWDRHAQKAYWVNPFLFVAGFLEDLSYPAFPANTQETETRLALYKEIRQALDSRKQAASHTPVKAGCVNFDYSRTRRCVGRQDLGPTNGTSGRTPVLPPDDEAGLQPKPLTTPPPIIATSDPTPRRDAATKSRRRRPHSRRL
# UniProt Q69091, residues 26-394: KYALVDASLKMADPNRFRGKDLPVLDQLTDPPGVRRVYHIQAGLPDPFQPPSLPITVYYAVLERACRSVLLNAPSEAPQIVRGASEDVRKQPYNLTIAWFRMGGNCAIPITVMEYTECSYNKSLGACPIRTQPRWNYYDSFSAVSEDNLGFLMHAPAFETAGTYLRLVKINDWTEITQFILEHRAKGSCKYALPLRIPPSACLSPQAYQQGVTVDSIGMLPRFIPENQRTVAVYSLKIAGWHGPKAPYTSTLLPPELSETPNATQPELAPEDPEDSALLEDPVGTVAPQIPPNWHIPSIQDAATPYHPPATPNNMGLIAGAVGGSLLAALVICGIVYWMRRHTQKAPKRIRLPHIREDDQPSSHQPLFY
# These are yes or no findings as the source states them, for the method shown. Binding seen in cells or lysates may run through a third protein. Some binding calls cover weakened binding; strength is not graded here.
# How the values were obtained:
# [1] = target: T1, phospholipid scramblase-1 (PLSCR1) (human (endogenous in CaSki and HaCAT)) (UniProt O15162); test: proximity ligation; CaSki cells synchronously infected with HSV-2(G) or HSV-1(KOS), fixed 15 min after the shift to 37°C; murine serotype-common mAbs to gD, gB, gL or gH with rabbit polyclonal anti-PLSCR1; Duolink probes
# T1 sequence: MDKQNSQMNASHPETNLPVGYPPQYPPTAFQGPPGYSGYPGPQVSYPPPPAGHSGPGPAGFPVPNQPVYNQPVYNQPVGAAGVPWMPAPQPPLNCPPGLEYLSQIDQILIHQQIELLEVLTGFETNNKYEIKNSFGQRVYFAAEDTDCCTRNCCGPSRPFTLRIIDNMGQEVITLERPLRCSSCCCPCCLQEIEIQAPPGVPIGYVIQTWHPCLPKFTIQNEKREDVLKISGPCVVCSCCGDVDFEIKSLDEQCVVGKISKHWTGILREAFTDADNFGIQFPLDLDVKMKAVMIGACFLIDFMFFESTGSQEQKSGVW
# [2] = target: T1, phospholipid scramblase-1 (PLSCR1) (human (endogenous in CaSki and HaCAT)); test: proximity ligation; CaSki cells synchronously infected with gH- or gL-deletion viruses of HSV-2(G) or HSV-1(KOS) (non-complemented ΔgH, ΔgL; complemented ΔgL-2+/-), fixed 15 min after the shift to 37°C; mAb to gL or gH with rabbit anti-PLSCR1
# [3] = target: T2, HSV-2 glycoprotein H (gH-2) of HSV-2(G) (HSV-2 (strain G)) (UniProt P89445); test: co-IP; CaSki cells, serum-starved, synchronously infected with HSV-2(G) (5 pfu/cell), lysed in RIPA buffer 15 min after the temperature shift; IP with mouse anti-gL, mouse anti-gH or rabbit anti-PLSCR1, protein A-agarose; supernatant, pellet and lysate blotted
# T2 sequence: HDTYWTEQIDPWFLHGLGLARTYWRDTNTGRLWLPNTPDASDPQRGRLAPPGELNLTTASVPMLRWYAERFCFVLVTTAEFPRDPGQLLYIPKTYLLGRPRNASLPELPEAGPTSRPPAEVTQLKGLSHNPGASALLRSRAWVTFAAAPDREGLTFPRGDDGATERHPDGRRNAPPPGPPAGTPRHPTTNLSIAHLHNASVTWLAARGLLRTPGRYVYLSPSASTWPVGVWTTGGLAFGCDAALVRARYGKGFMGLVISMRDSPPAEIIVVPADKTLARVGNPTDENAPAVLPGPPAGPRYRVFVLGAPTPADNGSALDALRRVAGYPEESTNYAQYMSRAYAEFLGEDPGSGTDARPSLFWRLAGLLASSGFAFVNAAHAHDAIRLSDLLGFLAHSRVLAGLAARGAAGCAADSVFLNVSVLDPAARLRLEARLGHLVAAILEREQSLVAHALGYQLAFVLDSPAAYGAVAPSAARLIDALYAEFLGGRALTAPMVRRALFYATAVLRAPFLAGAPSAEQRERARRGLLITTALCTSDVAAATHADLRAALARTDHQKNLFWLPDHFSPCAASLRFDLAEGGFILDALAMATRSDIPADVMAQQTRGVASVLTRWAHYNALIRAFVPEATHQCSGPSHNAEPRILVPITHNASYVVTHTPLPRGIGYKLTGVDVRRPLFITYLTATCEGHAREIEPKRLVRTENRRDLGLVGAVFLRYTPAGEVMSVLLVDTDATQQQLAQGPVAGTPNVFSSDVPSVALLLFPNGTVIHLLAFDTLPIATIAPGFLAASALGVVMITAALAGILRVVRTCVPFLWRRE
# [4] = target: T3, HSV-2 glycoprotein L (gL-2) of HSV-2(G) (HSV-2 (strain G)) (UniProt P28278); test: as above
# T3 sequence: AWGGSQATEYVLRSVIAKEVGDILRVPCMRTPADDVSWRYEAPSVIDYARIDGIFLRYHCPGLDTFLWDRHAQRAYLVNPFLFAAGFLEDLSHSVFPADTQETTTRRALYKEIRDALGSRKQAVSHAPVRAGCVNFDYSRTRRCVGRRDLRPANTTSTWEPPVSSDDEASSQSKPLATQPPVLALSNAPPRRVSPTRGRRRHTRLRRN
# [5] = target: T1, phospholipid scramblase-1 (PLSCR1) (human (endogenous in CaSki and HaCAT)); test: as above
Molecule,binding [1],binding [2],binding [3],binding [4],binding [5]
HSV-2 glycoprotein D (gD-2) of HSV-2(G) (from UniProt Q69467 26-393),no binding,,,,
HSV-1 glycoprotein H (gH-1) of HSV-1(KOS) (from UniProt P06477 19-838),no binding,no binding,,,
HSV-1 glycoprotein L (gL-1) of HSV-1(KOS) (from UniProt P10185 20-224),binds,binds,,,
HSV-1 glycoprotein D of HSV-1(KOS) (from UniProt Q69091 26-394),no binding,,,,
HSV-1 glycoprotein B of HSV-1(KOS) (from UniProt P06437 31-904),no binding,,,,
"phospholipid scramblase-1 (PLSCR1) (protein, UniProt O15162 1-318) MDKQNSQMNASHPETNLPVGYPPQYPPTAFQGPPGYSGYPGPQVSYPPPPAGHSGPGPAGFPVPNQPVYNQPVYNQPVGAAGVPWMPAPQPPLNCPPGLEYLSQIDQILIHQQIELLEVLTGFETNNKYEIKNSFGQRVYFAAEDTDCCTRNCCGPSRPFTLRIIDNMGQEVITLERPLRCSSCCCPCCLQEIEIQAPPGVPIGYVIQTWHPCLPKFTIQNEKREDVLKISGPCVVCSCCGDVDFEIKSLDEQCVVGKISKHWTGILREAFTDADNFGIQFPLDLDVKMKAVMIGACFLIDFMFFESTGSQEQKSGVW",,,no binding,binds,
"HSV-2 glycoprotein H (gH-2) of HSV-2(G) (protein, UniProt P89445 19-838) HDTYWTEQIDPWFLHGLGLARTYWRDTNTGRLWLPNTPDASDPQRGRLAPPGELNLTTASVPMLRWYAERFCFVLVTTAEFPRDPGQLLYIPKTYLLGRPRNASLPELPEAGPTSRPPAEVTQLKGLSHNPGASALLRSRAWVTFAAAPDREGLTFPRGDDGATERHPDGRRNAPPPGPPAGTPRHPTTNLSIAHLHNASVTWLAARGLLRTPGRYVYLSPSASTWPVGVWTTGGLAFGCDAALVRARYGKGFMGLVISMRDSPPAEIIVVPADKTLARVGNPTDENAPAVLPGPPAGPRYRVFVLGAPTPADNGSALDALRRVAGYPEESTNYAQYMSRAYAEFLGEDPGSGTDARPSLFWRLAGLLASSGFAFVNAAHAHDAIRLSDLLGFLAHSRVLAGLAARGAAGCAADSVFLNVSVLDPAARLRLEARLGHLVAAILEREQSLVAHALGYQLAFVLDSPAAYGAVAPSAARLIDALYAEFLGGRALTAPMVRRALFYATAVLRAPFLAGAPSAEQRERARRGLLITTALCTSDVAAATHADLRAALARTDHQKNLFWLPDHFSPCAASLRFDLAEGGFILDALAMATRSDIPADVMAQQTRGVASVLTRWAHYNALIRAFVPEATHQCSGPSHNAEPRILVPITHNASYVVTHTPLPRGIGYKLTGVDVRRPLFITYLTATCEGHAREIEPKRLVRTENRRDLGLVGAVFLRYTPAGEVMSVLLVDTDATQQQLAQGPVAGTPNVFSSDVPSVALLLFPNGTVIHLLAFDTLPIATIAPGFLAASALGVVMITAALAGILRVVRTCVPFLWRRE",no binding,no binding,,,no binding
"HSV-2 glycoprotein L (gL-2) of HSV-2(G) (protein, UniProt P28278 17-224) AWGGSQATEYVLRSVIAKEVGDILRVPCMRTPADDVSWRYEAPSVIDYARIDGIFLRYHCPGLDTFLWDRHAQRAYLVNPFLFAAGFLEDLSHSVFPADTQETTTRRALYKEIRDALGSRKQAVSHAPVRAGCVNFDYSRTRRCVGRRDLRPANTTSTWEPPVSSDDEASSQSKPLATQPPVLALSNAPPRRVSPTRGRRRHTRLRRN",binds,binds,,,binds
